# Results from PubChem BioAssay AID1345082 (National Center for Advancing Translational Sciences (NCATS), 2018).
# The whole screen tested about 94,000 compounds, of which about 4,000 (4.3%) were called active. Inconclusive means that the source gave no clear call. Such entries were picked first, then a sample of the others. Calls follow the shape of the dose curve; as a rule, active = well fitted inhibition curve with a large enough effect; inconclusive = small, poorly fitted or top-dose-only effect; inactive = no such curve, though single readings can be large or run the other way. Where the call is inconclusive, the potency comes from a doubtful curve fit.
# Test: Cytotoxic Profiling in NIH 3T3 Cell Line of Diverse Libraries Using Quantitative High-Throughput Screening; also: nearly all actives have a fitted effect of over 55% in size
# Settings: NIH 3T3 viability, CellTiter-Glo ATP luminescence, 48-72 h; series mostly up to 96.7 µM
# Summary of the method: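 Cells were seeded at 400 per well, treated with pin-transferred compound, and kept 48 or 72 hr at 37 °C before CellTiter-Glo addition and luminescence imaging of cellular ATP.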
# Potency is read from the fitted curve at half-maximal effect; tags tell the direction and shape of the fitted curve.
row,Compound,Potency
1,COCCN1C(=O)[C@@H]2C[C@@H](CN2Cc2cccc(OC)c2)Oc2ccccc21,"inconclusive: 100 µM [inhibitor, single point]"
2,O=C(NC(C(=O)NCc1ccccc1)C1CCN(C(=O)c2ccc(F)cc2)CC1)c1ccccc1 (stereo not given),inactive
3,CCN1CCC(CCNC(=O)C2CCCN(C(=O)c3ccccc3)CCC(=O)NCC2)CC1 (stereo not given),inactive
4,O=C(c1ccccc1F)N1CCN(c2ccc3nnc(C4CC4)n3n2)CC1,"inconclusive: 56.2 µM [inhibitor, partial curve, poor fit]"
5,COc1ccc(C(=O)Nc2ccc3c(c2)CN(Cc2ccc(F)cc2)C(=O)C(C)O3)c(OC)c1 (stereo not given),"inconclusive: 28.2 µM [inhibitor, full curve]"
6,O=C(NCc1ccccc1)c1nc2c(o1)CCN(Cc1c(F)cccc1F)CC2,"inconclusive: 89.1 µM [inhibitor, partial curve]"
7,COc1cccc(CCC(=O)N2C[C@@H](Oc3ccccc3)C[C@@H]2C(=O)N2CCOCC2)c1,inactive
8,COc1cccc(CCNC(=O)c2cc(-c3ccccc3C(F)(F)F)nc3c2cnn3C)c1,"inconclusive: 28.2 µM [inhibitor, partial curve]"
9,COc1ccc(-c2nnc3ccc(N4CCCC4)nn23)nc1,active: 31.6 µM
10,Cc1ncc2c(c1CNC(=O)c1ccc3c(c1)OCO3)CCN(C(=O)CC1NC(=O)c3ccccc31)C2 (stereo not given),inactive
11,O=C(NC1CC1)c1cn2cc(-c3ccccc3)sc2n1,"inconclusive: 56.2 µM [inhibitor, partial curve, poor fit]"
12,Cc1nc(-c2ccc(OC3CCN(C(=O)NCC(C)C)C3)cc2)no1 (stereo not given),"inconclusive: 39.8 µM [inhibitor, partial curve, poor fit]"
13,O=C(c1cncc(F)c1)N1CCOCC2(CN(Cc3cc(F)cc(F)c3)C2)C1,"inconclusive: 112 µM [inhibitor, single point]"
14,COc1ccc(-c2cn3c(n2)CO[C@@H](CNCc2ccc(OC(F)(F)F)cc2)C3)cc1,"inconclusive: 56.2 µM [inhibitor, partial curve, poor fit]"
15,CN1CCCC2(Cc3ccccc3CN(C(=O)c3ccccc3)C2)C1 (stereo not given),inactive
16,COc1ccc(OC)c(CNC(=O)C2(C)CCCCC(=O)N2)c1 (stereo not given),inactive
17,O=C(c1ccoc1)N1CCCC(CN2CCCC2)CC1 (stereo not given),inactive
18,Cc1nc2c(c(-c3ccc(Cl)cc3)n1)CCN(C(=O)N(C)C)CC2,"inconclusive: 50.1 µM [inhibitor, partial curve, poor fit]"
19,O[C@@H]1C[C@@H](c2nnc3n2CCN(Cc2cccc(F)c2)C3)N(Cc2cccnc2)C1,inactive
20,Cn1c(C(=O)N2CCC3(CCNC(=O)CC3)CC2)cc2c(Cl)cccc21,"inconclusive: 79.4 µM [inhibitor, partial curve, poor fit]"

row,Compound,Potency
1,O=C(Cn1ccn2nc(-c3ccc(F)cc3)c(CO)c2c1=O)N1CCN(c2ccccc2)CC1,inactive
2,Cn1cc(CN2CCN(C(c3ccccc3)c3ccccc3)CC2)cc1C#N,"inconclusive: 89.1 µM [inhibitor, partial curve, poor fit]"
3,O=C(NC1CCCc2c1[nH]c1ccccc21)c1n[nH]c2c1CCC2 (stereo not given),"inconclusive: 11.2 µM [inhibitor, full curve]"
4,CS(=O)(=O)c1ccc(O[C@H]2COCCN(Cc3ccc(-c4ccccc4)cc3)C2)cc1,"inconclusive: 35.5 µM [inhibitor, partial curve, poor fit]"
5,O=C(c1ccsc1)N1CCC(O)(c2ccccc2)[C@H](N2CCCC2)C1 (stereo not given in full),"inconclusive: 70.8 µM [inhibitor, single point]"
6,Cc1cc(-c2nc(C3CCOC3)no2)c2ccccc2n1 (stereo not given),"inconclusive: 79.4 µM [inhibitor, partial curve, poor fit]"
7,COc1cccc(CCN2CC[C@H]3CN(C(=O)c4ccccc4)CC[C@H]3CC2=O)c1OC,"inconclusive: 79.4 µM [inhibitor, single point]"
8,COc1cccc(CNC(=O)c2ccc3nnc(-c4cccc(C(F)(F)F)c4)n3c2)c1,"inconclusive: 39.8 µM [inhibitor, partial curve]"
9,O=C(c1cc(-c2ccncc2)n[nH]1)N1CCC2(CC1)Nc1ccccc1NC2=O,"inconclusive: 17.8 µM [inhibitor, full curve, poor fit]"
10,Cc1ccc(NC(=O)N2C[C@@H](F)C[C@H]2C(=O)N2CCc3ccccc3C2)c(Cl)c1,"inconclusive: 79.4 µM [inhibitor, partial curve, poor fit]"
11,COc1cccc(-c2cccc(C(=O)N3CCN(C(=O)C4CCCC4)CC3)c2)c1,"inconclusive: 39.8 µM [inhibitor, partial curve, poor fit]"
12,CC1=C[C@@H](CNC(=O)COCC(=O)O)[C@H](C(C)C)C[C@H]1Cc1nc2ccccc2n1C,inactive
13,Cc1cccc(-c2noc([C@@H]3C[C@@H](O)CN3Cc3ccc(Cl)cc3)n2)c1,"inconclusive: 100 µM [inhibitor, partial curve, poor fit]"
14,Cc1ccc([S+](=O)([O-])N2CC(N3C(=O)c4c(c(C)nn4-c4ccccc4)C3C3CC3)C2)cc1 (stereo not given),inactive
15,COc1cc(NC(=O)Cn2nc3n(c2=O)CCCCC3)cc(OC)c1OC,inactive
16,Cc1nnc(-c2cc(-c3ccc([S+](C)(=O)[O-])cc3)ccn2)n1Cc1cccnc1,"inconclusive: 50.1 µM [inhibitor, partial curve, poor fit]"
17,COc1nccc(N2CCC(CC(=O)N(C)CCCc3c(C)nn(C)c3C)CC2)n1,"inconclusive: 7.94 µM [inhibitor, full curve, poor fit]"
18,c1cc(-c2cc(-c3ccncc3)c3cncn3c2)c2[nH]ccc2c1,active: 39.8 µM
19,Cc1cc(C)c(CNC(=O)c2nc(-c3cccc(CO)c3)cc3c2ccn3C)c(=O)[nH]1,"inconclusive: 56.2 µM [inhibitor, partial curve, poor fit]"
20,O=C(C[C@@H]1CCNC[C@@H]1Cc1cc(CN2CCCCC2)on1)N1CCN(c2ccccc2)CC1,"inconclusive: 79.4 µM [inhibitor, partial curve, poor fit]"
